Measured values reported in the BET-seq Pho4 binding data (Le et al. 2018).
The other results are listed elsewhere or left out. These are noisy estimates, calculated here from bound and input reads.

What follows are sequences tested against T1, Pho4 (S. cerevisiae) (UniProt P07270) (assay: relative binding free energy (BET-seq); higher = weaker binding). Settings: reference: library average.
T1 sequence: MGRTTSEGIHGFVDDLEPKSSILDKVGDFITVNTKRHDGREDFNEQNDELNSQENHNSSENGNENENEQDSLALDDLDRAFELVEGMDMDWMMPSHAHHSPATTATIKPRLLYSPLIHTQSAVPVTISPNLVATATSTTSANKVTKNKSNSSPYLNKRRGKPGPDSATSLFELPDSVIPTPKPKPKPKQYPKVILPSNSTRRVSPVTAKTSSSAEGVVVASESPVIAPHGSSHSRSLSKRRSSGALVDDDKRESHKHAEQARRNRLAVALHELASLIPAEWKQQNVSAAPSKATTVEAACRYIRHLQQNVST

| Sequence | relative binding free energy [kcal/mol] |
| --- | --- |
| TGAGCCACGTGTTAGG | -0.02 |
| TTCCGCACGTGAGGGT | 0 |
| TGTGGCACGTGCGAGT | -0.12 |
| TCGAGCACGTGAGAGG | 0.24 |
| GCATTCACGTGAGGAT | 0.48 |
| TAGTACACGTGCAGGA | 0.18 |
| ATGTCCACGTGAGGGT | 0.15 |
| ATAGACACGTGGTGCG | -0.15 |
| AGATACACGTGGTATT | -0.02 |
| TAGGTCACGTGGTCAG | 0.05 |
| AATTGCACGTGAGTGT | 0.22 |
| TTCCTCACGTGTTTGT | 0.17 |
| GGGTGCACGTGCGGCT | -0.03 |
| AGATGCACGTGACGTT | 0.11 |
| ATTACCACGTGATGGT | 0.18 |
| GTTCTCACGTGGTCGG | 0.23 |
| TGAGACACGTGTTGAG | 0 |
| TGATACACGTGTTGTT | 0.06 |
| AGTTGCACGTGCGCGC | -0.06 |
| GAGGTCACGTGCTGGT | 0.19 |
| GGTATCACGTGAAGTA | 0.46 |

| Sequence | relative binding free energy [kcal/mol] |
| --- | --- |
| AGGAACACGTGAGGTT | 0.42 |
| AGGATCACGTGCTTTG | 0.13 |
| TCGGTCACGTGGAAGT | 0.33 |
| GTGTTCACGTGTTCGC | 0.3 |
| TACTTCACGTGGCATG | 0.36 |
| TGAAGCACGTGAGTGC | 0.17 |
| TGTGGCACGTGGTGAG | -0.08 |
| TACGGCACGTGTTGAT | 0.06 |
| TAAATCACGTGTGATA | 0.29 |
| GATGACACGTGGGGGC | -0.12 |
| CTGCGCACGTGTTGGA | -0.13 |
| CGGGGCACGTGAAGTA | 0.19 |
| TACGACACGTGGTGTT | -0.07 |
| GTCTGCACGTGAGGGT | 0.28 |
| TTACTCACGTGTGTAT | 0.12 |
| ATGATCACGTGTGTGG | 0.04 |
| AGGTTCACGTGGGAGC | 0.21 |
| GGTGGCACGTGTGATT | 0.06 |
| AGAGACACGTGGGTGG | -0.09 |
| AAAATCACGTGGTAGT | 0.05 |
| GTTATCACGTGAGGGC | 0.22 |

| Sequence | relative binding free energy [kcal/mol] |
| --- | --- |
| TTTTGCACGTGAAATT | 0.3 |
| GGAGACACGTGCGGGG | -0.04 |
| GTTGTCACGTGGCGGA | 0.15 |
| ACGGGCACGTGGTCGG | -0.14 |
| GGAGGCACGTGATGTG | -0.04 |
| TGGCGCACGTGTTGGT | 0.03 |
| GTGAGCACGTGGTAAG | -0.09 |
| GGTTACACGTGCGGAT | 0.22 |
| GGGTTCACGTGTATAG | 0.27 |
| ATTATCACGTGCTTTA | 0.07 |
| AGACGCACGTGTCGGT | 0.11 |
| GAGGCCACGTGTTGTG | -0.16 |
| AGTAGCACGTGTGAGT | -0.11 |
| TCGGGCACGTGTTTCG | 0.08 |
| TAATTCACGTGGTTAT | 0.2 |
| ATGTACACGTGCTAGG | 0.02 |
| GTGTGCACGTGATGAT | 0.15 |
| TTTACCACGTGTATGT | 0.05 |
| AAAGTCACGTGGGCTT | 0.02 |
| AGGGCCACGTGTTATT | 0.02 |
| TCATGCACGTGATTTA | 0.14 |
